This is one part of the list. The list includes weakly bound sequences.

The target in the assay is T1, MBP-FoxP3dN (UniProt Q99JB6).
T1 sequence: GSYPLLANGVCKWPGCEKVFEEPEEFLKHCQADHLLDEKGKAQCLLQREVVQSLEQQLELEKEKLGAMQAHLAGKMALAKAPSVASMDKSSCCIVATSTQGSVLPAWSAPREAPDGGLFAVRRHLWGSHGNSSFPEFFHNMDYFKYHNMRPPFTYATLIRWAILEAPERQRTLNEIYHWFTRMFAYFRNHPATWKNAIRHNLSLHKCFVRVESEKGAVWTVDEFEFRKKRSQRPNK
As to the kind of experiment: PD-seq (MBP pull-down with sequencing). As to conditions: 20 mM Tris-HCl pH 7.5, 100 mM NaCl, 1.5 mM MgCl2, 0.4 uM protein, 0.1 uM dsDNA library, 30 min, room temperature, amylose pull-down; high values mean tight binding; double strand, one strand shown.
With “GATGATTGTTCTCCCAGCTGATGAATTGAATCGATCGAGTAAACAAATTTTCCTAATCTTTCTGTTCAAGCGCCATCTAC”, the binding signal (RPM ratio (pull-down/input)) came to 0.276.

“GATGATTGTTCTCCCAGCTGATGAATTGACTAGATCGAGTAAACAAATTTTCCTAATCTTTCTGTTCAAGCGCCATCTAC”: the binding signal (RPM ratio (pull-down/input)) was 0.235.

Take “GATGATTGTTCTCCCAGCTGATGAATTTGCGGTCTCGAGTAAACAAATTTTCCTAATCTTTCTGTTCAAGCGCCATCTAC”: the binding signal (RPM ratio (pull-down/input)) turned out to be 1.58.

In the case of “GATGATTGTTCTCCCAGCTGATGAATTTGGCTTGTCGAGTAAACAAATTTTCCTAATCTTTCTGTTCAAGCGCCATCTAC”, the binding signal (RPM ratio (pull-down/input)) was found to be 3.11.

With “GATGATTGTTCTCCCAGCTGATGAATTTTTGTCCTCGAGTAAACAAATTTTCCTAATCTTTCTGTTCAAGCGCCATCTAC”, the binding signal (RPM ratio (pull-down/input)) came out at 0.301.

For the sequence “GATGATTGTTCTCCCAGCTGATGAATTATGCAGATCGAGTAAACAAATTTTCCTAATCTTTCTGTTCAAGCGCCATCTAC”, the binding signal (RPM ratio (pull-down/input)) was determined as 0.865.

As to “GATGATTGTTCTCCCAGCTGATGAATTCATCAAGTCGAGTAAACAAATTTTCCTAATCTTTCTGTTCAAGCGCCATCTAC”, the binding signal (RPM ratio (pull-down/input)) worked out at 0.256.

For the sequence “GATGATTGTTCTCCCAGCTGATGAATTAACAAAATCGAGTAAACAAATTTTCCTAATCTTTCTGTTCAAGCGCCATCTAC”, the binding signal (RPM ratio (pull-down/input)) was found to be 0.327.

As to “GATGATTGTTCTCCCAGCTGATGAATTACCCGGTTCGAGTAAACAAATTTTCCTAATCTTTCTGTTCAAGCGCCATCTAC”, the binding signal (RPM ratio (pull-down/input)) is 0.221.

For the sequence “GATGATTGTTCTCCCAGCTGATGAATTTTATTAATCGAGTAAACAAATTTTCCTAATCTTTCTGTTCAAGCGCCATCTAC”, the binding signal (RPM ratio (pull-down/input)) amounted to 0.755.

For the sequence “GATGATTGTTCTCCCAGCTGATGAATTGCAATGGTCGAGTAAACAAATTTTCCTAATCTTTCTGTTCAAGCGCCATCTAC”, the binding signal (RPM ratio (pull-down/input)) is 1.25.

Turning to “GATGATTGTTCTCCCAGCTGATGAATTAGAGCACTCGAGTAAACAAATTTTCCTAATCTTTCTGTTCAAGCGCCATCTAC”, the binding signal (RPM ratio (pull-down/input)) came to 0.377.

With “GATGATTGTTCTCCCAGCTGATGAATTAAATTCGTCGAGTAAACAAATTTTCCTAATCTTTCTGTTCAAGCGCCATCTAC”, the binding signal (RPM ratio (pull-down/input)) was 0.386.

Turning to “GATGATTGTTCTCCCAGCTGATGAATTAGATGCTTCGAGTAAACAAATTTTCCTAATCTTTCTGTTCAAGCGCCATCTAC”, the binding signal (RPM ratio (pull-down/input)) was 1.96.

Turning to “GATGATTGTTCTCCCAGCTGATGAATTGGCCATCTCGAGTAAACAAATTTTCCTAATCTTTCTGTTCAAGCGCCATCTAC”, the binding signal (RPM ratio (pull-down/input)) turned out to be 0.721.

With “GATGATTGTTCTCCCAGCTGATGAATTAGGACACTCGAGTAAACAAATTTTCCTAATCTTTCTGTTCAAGCGCCATCTAC”, the binding signal (RPM ratio (pull-down/input)) stood at 1.22.

With “GATGATTGTTCTCCCAGCTGATGAATTGATGCAATCGAGTAAACAAATTTTCCTAATCTTTCTGTTCAAGCGCCATCTAC”, the binding signal (RPM ratio (pull-down/input)) was 5.86.

With “GATGATTGTTCTCCCAGCTGATGAATTACAAAACTCGAGTAAACAAATTTTCCTAATCTTTCTGTTCAAGCGCCATCTAC”, the binding signal (RPM ratio (pull-down/input)) stood at 0.374.

As to “GATGATTGTTCTCCCAGCTGATGAATTGCTAGATTCGAGTAAACAAATTTTCCTAATCTTTCTGTTCAAGCGCCATCTAC”, the binding signal (RPM ratio (pull-down/input)) is 0.584.

For the sequence “GATGATTGTTCTCCCAGCTGATGAATTCAGGCGGTCGAGTAAACAAATTTTCCTAATCTTTCTGTTCAAGCGCCATCTAC”, the binding signal (RPM ratio (pull-down/input)) came out at 0.36.

On to “GATGATTGTTCTCCCAGCTGATGAATTACTGGTATCGAGTAAACAAATTTTCCTAATCTTTCTGTTCAAGCGCCATCTAC”, for which the binding signal (RPM ratio (pull-down/input)) was found to be 0.49.

For “GATGATTGTTCTCCCAGCTGATGAATTAAAGTCGTCGAGTAAACAAATTTTCCTAATCTTTCTGTTCAAGCGCCATCTAC”, the binding signal (RPM ratio (pull-down/input)) amounted to 0.372.

On to “GATGATTGTTCTCCCAGCTGATGAATTTACAATATCGAGTAAACAAATTTTCCTAATCTTTCTGTTCAAGCGCCATCTAC”, for which the binding signal (RPM ratio (pull-down/input)) came to 0.904.

For “GATGATTGTTCTCCCAGCTGATGAATTTATTACCTCGAGTAAACAAATTTTCCTAATCTTTCTGTTCAAGCGCCATCTAC”, the binding signal (RPM ratio (pull-down/input)) was 1.79.

In the case of “GATGATTGTTCTCCCAGCTGATGAATTTGTTCTTTCGAGTAAACAAATTTTCCTAATCTTTCTGTTCAAGCGCCATCTAC”, the binding signal (RPM ratio (pull-down/input)) is 2.28.

Consider “GATGATTGTTCTCCCAGCTGATGAATTTGGATGTTCGAGTAAACAAATTTTCCTAATCTTTCTGTTCAAGCGCCATCTAC”, for which the binding signal (RPM ratio (pull-down/input)) came to 1.52.

As to “GATGATTGTTCTCCCAGCTGATGAATTTCTAAGATCGAGTAAACAAATTTTCCTAATCTTTCTGTTCAAGCGCCATCTAC”, the binding signal (RPM ratio (pull-down/input)) was determined as 0.171.

With “GATGATTGTTCTCCCAGCTGATGAATTATGACAGTCGAGTAAACAAATTTTCCTAATCTTTCTGTTCAAGCGCCATCTAC”, the binding signal (RPM ratio (pull-down/input)) was 0.573.

As to “GATGATTGTTCTCCCAGCTGATGAATTGGAGGATTCGAGTAAACAAATTTTCCTAATCTTTCTGTTCAAGCGCCATCTAC”, the binding signal (RPM ratio (pull-down/input)) turned out to be 0.292.

As to “GATGATTGTTCTCCCAGCTGATGAATTCCATCACTCGAGTAAACAAATTTTCCTAATCTTTCTGTTCAAGCGCCATCTAC”, the binding signal (RPM ratio (pull-down/input)) was found to be 0.74.

On to “GATGATTGTTCTCCCAGCTGATGAATTTGGTAATTCGAGTAAACAAATTTTCCTAATCTTTCTGTTCAAGCGCCATCTAC”, for which the binding signal (RPM ratio (pull-down/input)) turned out to be 1.15.

(Values after PMC12820563.)
